Reference: PubChem BioAssay AID1346428 (National Center for Advancing Translational Sciences (NCATS), 2018)
Values joined by “and” are separate entries in the source; they are usually repeats but may differ in a detail not shown here. Equal values may be shown once. The campaign covered roughly 48,000 compounds. About 1,200 (2.5%) were called active. Roughly 2% stayed inconclusive and do not appear here.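 How the source made its calls: active means activation of at least 60% and not above a set upper limit (about 1 call in 100 departs from these limits); inconclusive means activation of 40% to 60%, or above that upper limit; inactive means activation under 40%.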 The list shows a part of the results.

molecular target: Probable G-protein coupled receptor 32 (Homo sapiens) (UniProt O75388); assay: qHTS for Agonists of Human Resolvin D1 Receptor DRV1; conditions: CHO-K1 GPR32 beta-arrestin PathHunter luminescence, 90 min; at 76.9 µM; stronger effect = higher value; zero percent set by DMSO-only wells; further: 0% is about no effect
UniProt O75388, sequence (O75388 whole entry, looked up): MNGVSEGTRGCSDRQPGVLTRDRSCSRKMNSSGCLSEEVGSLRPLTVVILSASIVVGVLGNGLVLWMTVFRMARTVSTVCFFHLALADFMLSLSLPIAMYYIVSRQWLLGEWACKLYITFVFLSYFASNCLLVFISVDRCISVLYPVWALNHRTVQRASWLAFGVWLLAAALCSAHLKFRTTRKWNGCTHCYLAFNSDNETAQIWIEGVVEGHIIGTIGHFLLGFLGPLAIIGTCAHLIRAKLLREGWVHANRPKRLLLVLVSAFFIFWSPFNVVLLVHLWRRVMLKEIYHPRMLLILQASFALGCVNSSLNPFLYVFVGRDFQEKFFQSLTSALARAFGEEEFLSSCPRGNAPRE
Method in brief: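 Engineered CHO-K1 line co-expressing GPR32-ProLink and EA-beta-arrestin. Compound treatment lasted 90 min at 37 °C. Luminescence was recorded after 1 h with substrate at ambient temperature, relative to DMSO basal wells.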

SMILES	activation
COc1ccc(CNc2nc(-c3ccco3)nn2S(=O)(=O)c2ccc3ccccc3c2)cc1OC	inactive: -0.342%
Cc1cc(C)n2nc(NCc3ccccc3Cl)nc2n1	inactive: -1.65%
CCc1ccc(NC(=O)Cn2c(=O)n(Cc3ccc4c(c3)OCO4)c(=O)c3oc4ccccc4c32)cc1	inactive: -16.5%
Cc1cc2oc(C(=O)NCCc3ccc(S(N)(=O)=O)cc3)cc(=O)c2cc1C	inactive: -3.55%
Cc1ccc(-c2noc(CN(C3CCCCC3)S(=O)(=O)c3ccc(F)cc3)n2)cc1	inactive: -23.6%
CC(=O)Nc1ccc(NC(=O)CSc2cn(CC(=O)N(C(C)C)C(C)C)c3ccccc23)cc1	inactive: -16.7%
COC(=O)c1cc2occc2n1Cc1nc(-c2ccccc2C)oc1C	inactive: -24.6%
CCC(=O)N1CCc2cc(S(=O)(=O)NC(Cc3ccccc3)C(=O)NCc3ccc(C)cc3)ccc21 (stereo not drawn)	inactive: -14.4%
COc1ccc(OCCn2cc(C(=O)c3ccco3)c3ccccc32)cc1	inactive: -3.96%
CCOc1ccccc1CN1C(=O)c2ccccc2C1C(=O)NC1CCCCCC1 (stereo not drawn)	inactive: -12.1%
COc1cc(C(=O)NCc2nnnn2-c2ccc(C)c(C)c2)cc(OC)c1OC	inactive: -5.28%
CCN1CCN(C(=O)c2ccc3c(c2)N(Cc2c(F)cccc2Cl)C(=O)c2ccccc2S3)CC1	inactive: -17.4%
Cc1ccccc1COC(=O)c1ccc(-c2nnn(Cc3ccccc3F)n2)cc1	inactive: -8.13%
CC(C)c1ccc(NC(=O)CSC2=Nc3ccccc3C3=NC(CCC(=O)NCc4ccc(F)cc4)C(=O)N23)cc1 (stereo not drawn)	inactive: 18.4%
COc1ccc(-c2nc(C)c(CCNC(=O)c3ccco3)s2)cc1	inactive: 37.8%
CCC(C)Sc1nc2c([nH]c3ccccc32)c(=O)n1C (stereo not drawn)	inactive: -17.1%
CC(=O)N1c2ccc(S(=O)(=O)N3CCN(c4cc(Cl)ccc4C)CC3)cc2CC1C (stereo not drawn)	inactive: 7.3%
O=c1c(-c2cc(-c3ccc(F)cc3)nc3c2COc2ccc(Cl)cc2-3)coc2ccc(F)cc12	inactive: -3.89%
c1ccc(CSc2nnc(C3CCNCC3)o2)cc1	inactive: -11.4%
CCOc1ccc(C(=O)N2CCC(c3nc(-c4ccc(S(=O)(=O)N5CCCC5)cc4)no3)CC2)cc1	inactive: -7.8%
COC(=O)c1ccc(NC(=O)CCn2cccn2)cc1	inactive: -1.69%

SMILES	activation
Cc1ccc(C(C)C)c(OCC(=O)Nc2cccc(-c3nc4ncccc4o3)c2)c1	inactive: -2.06%
CCOc1ccc(Cc2nccc3cc(OCC)c(OCC)cc23)cc1OCC	active: 88.3%
O=c1[nH]c2ccc(NCc3ccc(-c4ccccc4F)o3)cc2[nH]1	inactive: -1.33%
COc1cccc(Oc2nc3c(c(=O)n(Cc4ccccc4Cl)c(=O)n3C)n2C)c1	inactive: -6.49%
CCOc1ccc(-c2cc3c(=O)n(Cc4nc(-c5ccc(OC)cc5OC)oc4C)ccn3n2)cc1Cl	inactive: -0.931%
COc1ccc(CNC(=O)c2ccc3c(c2)N(Cc2ccccc2)C(=O)c2ccccc2S3=O)cc1 (stereo not drawn)	inactive: -0.45%
CCc1ccccc1OCCSc1nc(-c2cccs2)nc2cc(=O)[nH]n12	inactive: 13.1%
COc1ccccc1NC(=O)c1nnn(-c2ccc(F)cc2)c1C	inactive: -4.52%
Cc1cc(F)ccc1NC(=O)C(C(C)C)N1Cc2ccccc2C1=O (stereo not drawn)	inactive: -16.2%
CC(=O)Nc1ccc(S(=O)(=O)NC2=NCN(C(C)C)CN2)cc1	inactive: -5.53%
COc1ccc(C(=O)N2CC(=O)Nc3ccc(C)cc3C2c2ccc(F)cc2)c(OC)c1 (stereo not drawn)	inactive: -9.35%
O=c1c(-c2cc(-c3ccc(Cl)cc3)nc3c2COc2ccccc2-3)coc2ccccc12	inactive: -3.91%
CN(CC(=O)NCc1ccccc1Cl)S(=O)(=O)c1ccc2c(c1)c(=O)n(C)c(=O)n2C	inactive: -3.26%
Cc1sc2ncn(CC(=O)N3CCN(c4ccccc4F)CC3)c(=O)c2c1S(=O)(=O)N1CCN(c2ncccn2)CC1	inactive: -4.36%
Cc1ccc(Cl)cc1N1CCN(C(=O)Cc2c(C(=O)O)c(C)cn2C)CC1	inactive: -6.2%
CCC(=O)N1CCc2cc(Br)cc(S(=O)(=O)CCC(=O)NCCc3ccc(C)cc3)c21	inactive: -17.4%
COc1ccc(Nc2c(-c3ccco3)nc3cccc(C)n23)cc1	inactive: -16.6%
O=C(Nc1ccccc1C(F)(F)F)Nc1c[nH]c(=O)[nH]c1=O	inactive: -6.79%
COc1cc(OC)c(OC)cc1CN1CCc2nc(N3CCN(c4ccccc4F)CC3)ncc2C1	inactive: 0.238%
Cc1ccc2c(C)c(C(=O)N3CCC(c4nc5ccccc5s4)CC3)oc2c1C	inactive: 38.2%
CCN(CC)CC(=O)Nc1c(C)cccc1C(=O)OC	inactive: -12%

SMILES	activation
Cc1ccc(OCC(=O)N(Cc2ccc(Cl)cc2)CC2CCCO2)cc1C (stereo not drawn)	inactive: -0.688%
Cc1cc(N2CCN(c3cccc(C(F)(F)F)c3)CC2)n2nc(-c3ccccc3C)nc2n1	inactive: -16.9%
CCCOc1ccc(C2C(=O)N(C3CCCCCC3)CC(=O)N2Cc2ccc(OC)cc2)cc1OC (stereo not drawn)	inactive: -34.1%
CCN(CC)S(=O)(=O)c1ccc2c(c1)N(CC(=O)NCc1ccc(F)cc1)C(=O)CO2	inactive: -15.5%
CCC(C)NC(=O)CSc1nc2c(sc3ccccc32)c(=O)n1CCc1ccccc1 (stereo not drawn)	inactive: -9.35%
O=S(=O)(c1cccc(C(F)(F)F)c1)N1CCC(Oc2ccc(-n3cnnn3)cc2)CC1	inactive: -3.66%
Cc1ccc2oc(=O)c3cnn(CC(=O)N4CCN(c5cccc(C(F)(F)F)c5)CC4)c3c2c1	inactive: 1.77%
COc1cccc(NC(=O)Cn2c(=O)n(Cc3ccccc3)c(=O)c3c2c2cc(C)ccc2n3C)c1	inactive: -25.4%
Cc1cc(C)c2oc(-c3cc(NC(=O)Cc4ccccc4)ccc3Cl)nc2c1	inactive: 49.4%
COc1ccc(NC(=O)C2=C(C)Nc3c(C(=O)Nc4ccc(C)cc4)cnn3C2c2cc(OC)ccc2OC)cc1 (stereo not drawn)	inactive: -16%
CN(C)c1ccc(C2CC(c3c(O)n(C4CCCCC4)c(=O)[nH]c3=O)=Nc3ccccc3S2)cc1 (stereo not drawn)	inactive: -3.29%
CCCN1CCc2nc(SCC(=O)Nc3ccc(C)c(Cl)c3)[nH]c(=O)c2C1	inactive: -6.24%
O=C(Nc1ccc([N+](=O)[O-])cc1Cl)c1cc(Cl)ccc1O	inactive: 11.4% and inactive: 6.98%
Cc1ccc2nc(NC(=O)CSc3nccn3Cc3ccccc3)sc2c1	inactive: -7.08%
CCOCCc1nnc(NC(=O)C(=O)c2cc(C)n(-c3cccc(Cl)c3)c2C)s1	inactive: 6.5%
COc1cc(NC(=O)c2cc(-c3cccc(Cl)c3)on2)c(OC)cc1Cl	inactive: 6.91%
Cc1cccc(Cn2c(=O)n(-c3ccc(Cl)c(Cl)c3)c(=O)c3c(C)c(C)sc32)c1	inactive: -0.56%
COc1ccccc1NC(=O)c1nc(SCc2ccc(F)cc2)ncc1Cl	inactive: 22.7%
CCOC(=O)c1cnc2ccccc2c1Nc1ccc(N2CCOCC2)cc1	inactive: 2.31%
CCc1ccc(N2CCn3c2nc2c3c(=O)n(CCc3ccccc3)c(=O)n2C)cc1	inactive: 16.7%
Clc1ccc(-c2nc3ccccn3c2Nc2ccc3c(c2)OCCO3)s1	inactive: -17.8%

SMILES	activation
Cc1ccc(N(CC(=O)N2CCN(c3cc(Cl)ccc3C)CC2)S(=O)(=O)c2c(C)noc2C)cc1	inactive: -14.6%
COc1ccc(OC)c(NC(=O)c2sc3nc4c(cc3c2N)CCCCCC4)c1	inactive: -26.8%
Cc1noc2ncnc(NCc3ccccc3Cl)c12	inactive: 24%
CCOc1ccc(NC(=O)C(=O)NCCc2csc(-c3ccc(C)cc3)n2)cc1	inactive: -9.58%
COc1ccc(NC(=O)c2sc3nc(C)c(C(=O)Nc4ccc(C)cc4C)c(-c4cccs4)c3c2N)cc1	inactive: -17.7%
CCN(Cc1ccccc1)C(=O)Cn1c(=O)oc2cc(S(=O)(=O)N3CCCCCC3)ccc21	inactive: -22.5%
Cc1ccccc1CSc1cn(CC(=O)N2CCCC2)c2ccccc12	inactive: -29.7%
Cc1ccc(C)c(N2CCN(C(c3ccc(F)cc3)c3nnc(-c4ccccc4)o3)CC2)c1 (stereo not drawn)	inactive: -39.6%
CCC(=O)N1CCc2cc(S(=O)(=O)NCCC(=O)Nc3ccc(OC)c(OC)c3)ccc21	inactive: 5.66%
Cc1cnc2c(c1SCC(=O)NCc1ccc(F)cc1)c(=O)n(C)c(=O)n2C	inactive: -5.77%
COc1cc(-c2nnn(CC(=O)NCc3ccccc3)n2)cc(OC)c1OC	inactive: 2.09%
COc1ccc(NC(=O)CSc2nnc3c(C)cc4ccccc4n23)cc1	inactive: -7.27%
Cc1cccc(N2CCN(c3ncnc4c3c(-c3ccccc3)cn4-c3ccccc3)CC2C)c1 (stereo not drawn)	inactive: -27.1%
CCOc1ccc(-c2cc(C(=O)N3CCN(c4ccc(C)cc4)C(C)C3)c3ccccc3n2)cc1 (stereo not drawn)	inactive: -22.7%
CC1Cc2ccccc2N1C(=O)CSc1nnc(-c2cccc(Cl)c2)o1 (stereo not drawn)	inactive: 14.7%
CCOC(=O)c1cc(NC(=O)c2ccc(OC)cc2)c(=O)n2c1oc1ccc(Cl)cc12	inactive: 16.9%
CCn1c(CNC(=O)C23CC4CC(CC(C4)C2)C3)nnc1SCC(=O)Nc1ccc(F)cc1	inactive: 25.9%
CCOc1ccc(CCNC(=O)c2cc3c(=O)n(C)c4ccccc4c3n2C)cc1	inactive: -40.2%
O=C(CCc1ccccc1)NCc1ccc2c(c1)CCN2C(=O)c1ccc(Cl)cc1	inactive: -14.3%
O=c1[nH]c2ccc(NCc3ccccc3F)cc2[nH]1	inactive: -1.75%
